The record followed here is paper PMC4336329 (PLoS ONE, 2015).

Molecules are shown by their SMILES. Out of some 310,000 compounds screened, about 14,000 (4.5%) showed an effect of 50% or more. Effects have a minus sign here. Some of the results follow.
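Note: peak tail current of the secondary pulse compared with the same well before compound.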

In the test the target is human ether-à-go-go-related gene (hERG) potassium channel (human, UniProt Q12809). The test can be described thus: primary screen, population patch clamp on CHO cells stably expressing hERG.
Sequence of human ether-à-go-go-related gene (hERG) potassium channel (Q12809 whole entry, looked up): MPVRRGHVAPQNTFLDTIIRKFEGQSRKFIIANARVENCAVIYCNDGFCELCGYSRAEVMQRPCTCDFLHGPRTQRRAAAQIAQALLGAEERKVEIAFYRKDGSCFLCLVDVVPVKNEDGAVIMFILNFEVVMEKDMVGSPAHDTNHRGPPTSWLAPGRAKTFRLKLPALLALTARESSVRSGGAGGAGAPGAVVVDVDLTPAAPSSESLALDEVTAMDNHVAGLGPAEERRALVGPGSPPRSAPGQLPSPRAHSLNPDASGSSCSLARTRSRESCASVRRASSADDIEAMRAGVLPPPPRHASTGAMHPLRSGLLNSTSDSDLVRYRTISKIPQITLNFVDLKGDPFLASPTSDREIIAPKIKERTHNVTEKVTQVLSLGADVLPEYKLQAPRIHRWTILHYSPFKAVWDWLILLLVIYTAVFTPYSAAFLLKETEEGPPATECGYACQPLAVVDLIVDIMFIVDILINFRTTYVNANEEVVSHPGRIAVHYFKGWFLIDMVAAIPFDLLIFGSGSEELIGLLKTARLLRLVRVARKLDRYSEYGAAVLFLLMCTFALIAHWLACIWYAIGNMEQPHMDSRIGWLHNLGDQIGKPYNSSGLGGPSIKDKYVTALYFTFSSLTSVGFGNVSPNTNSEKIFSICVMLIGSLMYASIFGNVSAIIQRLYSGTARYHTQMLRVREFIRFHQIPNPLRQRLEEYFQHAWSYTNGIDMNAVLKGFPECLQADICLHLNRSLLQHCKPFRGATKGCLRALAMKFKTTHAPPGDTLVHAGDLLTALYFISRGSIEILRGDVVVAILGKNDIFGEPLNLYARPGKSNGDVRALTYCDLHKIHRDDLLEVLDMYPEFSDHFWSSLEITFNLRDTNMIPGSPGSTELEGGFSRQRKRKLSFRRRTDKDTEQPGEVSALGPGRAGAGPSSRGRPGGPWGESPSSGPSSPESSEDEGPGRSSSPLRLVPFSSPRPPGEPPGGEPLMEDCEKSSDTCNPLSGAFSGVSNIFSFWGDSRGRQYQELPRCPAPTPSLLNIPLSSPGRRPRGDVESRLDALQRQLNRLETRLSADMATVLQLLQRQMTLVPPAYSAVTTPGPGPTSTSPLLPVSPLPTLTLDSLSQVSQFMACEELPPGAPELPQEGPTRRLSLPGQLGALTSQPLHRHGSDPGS
Regarding `Cc1cc(C)c(C(=O)COC(=O)c2ccc([N+](=O)[O-])o2)cc1C`, the “hERG current change (%, negative = inhibition) at 10uM” value was 14.4%.

Regarding `COc1ccc(Cl)cc1-n1c(C)ccc1C`, the “hERG current change (%, negative = inhibition) at 10uM” value worked out at 11.9%. `CCOc1ccc(Nc2nc(Cc3nnc(SCC(=O)NC4CCCCC4)n3C)cs2)cc1`: the “hERG current change (%, negative = inhibition) at 10uM” value is -33.1%. The result for `COc1ccc(OCc2nnc(SCC(=O)N3c4ccccc4Sc4ccc(Cl)cc43)o2)cc1` reads 1.07%; that for `Cc1cc(C)nc(N2CCC(C(=O)NCc3ccccc3F)CC2)n1`, 27%; that for `CN(C)c1ccc(/C=C/c2cc[n+]([O-])cc2)cc1`, -0.959%. The result for `CCOc1ccccc1NC(=O)C1CCN(S(=O)(=O)c2ccc(OC)c(OC)c2)CC1` reads 11.8%.

On to `COc1cccc(C2C(C#N)=C(N)Oc3cc(C)n(Cc4ccco4)c(=O)c32)c1` (stereo not drawn), for which the “hERG current change (%, negative = inhibition) at 10uM” value is 0.831%. Next, `CCc1ccc(S(=O)(=O)NCCc2csc(-c3ccccc3)n2)s1`: 5.95%; `O=C(CCc1ccccc1)Nc1nnc(-c2ccc3c(c2)OCCO3)o1`: 24.4%; `N#C/C(=C\c1ccc([N+](=O)[O-])cc1)C(=O)NCCCn1ccnc1`: -59.5%. With `CCOC(=O)c1cnn(-c2c(Cc3ccccc3)c(C)nc3c(-c4ccccc4)c(C)nn23)c1N`, the “hERG current change (%, negative = inhibition) at 10uM” value is recorded as -1.57%. Take `COC(=O)C1=C(C)Nc2ncnn2C1c1cccnc1` (stereo not drawn): the “hERG current change (%, negative = inhibition) at 10uM” value came out at 2.93%.

Turning to `Cc1cc(=O)[nH]c(SCC(=O)N2CCC(C(N)=O)CC2)n1`, the “hERG current change (%, negative = inhibition) at 10uM” value amounted to 9.28%. Regarding `O=S(=O)(NCCSc1ccccn1)c1ccc(Br)cc1`, the “hERG current change (%, negative = inhibition) at 10uM” value is listed as -20.7%. Next, `O=C(CCCCCN1C(=O)c2ccccc2C1=O)Oc1ccc2c3c(c(=O)oc2c1)CCC3`: 9.86%; `CCc1cc(Br)ccc1N1C(=O)C2CC=CCC2C1=O` (stereo not drawn): 5.21%. Consider `COc1ccc(NC(=O)CSc2nc(O)cc(=O)n2C)cc1`, for which the “hERG current change (%, negative = inhibition) at 10uM” value is listed as 16.7%. Consider `CC(=O)N1CCc2cc(S(=O)(=O)CCC(=O)NCCc3ccccc3)ccc21`, for which the “hERG current change (%, negative = inhibition) at 10uM” value is 14.7%. In the case of `O=C(CN1CCCN(Cc2ccc(F)cc2Cl)C1=O)NCc1ccccc1`, the “hERG current change (%, negative = inhibition) at 10uM” value is given as -28.6%.

`COc1ccccc1CCNC(=O)C(=O)NCC1OCCN1S(=O)(=O)c1ccc2c(c1)OCCO2` (stereo not drawn): the “hERG current change (%, negative = inhibition) at 10uM” value is on record as -1.99%. Regarding `Cc1c(Br)c([N+](=O)[O-])nn1CC(=O)c1ccccc1`, the “hERG current change (%, negative = inhibition) at 10uM” value amounted to 11.4%.

For `COC(=O)c1cc(S(=O)(=O)Nc2cccc(OC)c2)cn1C`, the “hERG current change (%, negative = inhibition) at 10uM” value was found to be 2.05%. Turning to `C=CCOC(=O)C1=C(C)NC(SCC(=O)N(CC)CC)=C(C#N)C1c1ccco1` (stereo not drawn), the “hERG current change (%, negative = inhibition) at 10uM” value is recorded as -51.3%.

As to `O=C(O)C(c1ccccc1)N1C(=O)c2ccccc2C1=O` (stereo not drawn), the “hERG current change (%, negative = inhibition) at 10uM” value is on record as -0.853%. The result for `Cc1[nH]n(C(C)(C)C)c(=O)c1Sc1ccc(Cl)cc1` reads 17.8%; that for `O=C(c1ccc(S(=O)(=O)Nc2ccccc2F)cc1)N1CCCCCC1`, 2.93%; that for `COC(=O)[C@@]12CCCCN1[C@H](c1ccc(-c3ccc(C(C)=O)cc3)cc1)[C@H]1C(=O)N(C)C(=O)[C@H]12.O=C(O)C(F)(F)F`, 5.62%. Next, `CCC(=O)Oc1ccc2c(C)c(Cl)c(=O)oc2c1`: -6.57%. Next, `Cc1ccc(N=CC2=C(O)CC(C)(C)CC2=O)nc1`: 7.82%; `O=C(c1cccnc1)C1CCCN(Cc2nc(Cc3ccccc3)no2)C1` (stereo not drawn): -6.76%; `COc1ccc2nc(NC(=O)CCNC(=O)c3ccccc3Cl)sc2c1`: -4.99%. With `O=C(NNC(=O)c1ccc(O)cc1O)c1ccc(-c2ccccc2)cc1`, the “hERG current change (%, negative = inhibition) at 10uM” value turned out to be 19.6%.

Take `CC(C)(C)c1ccc(CNc2ccc([N+](=O)[O-])cn2)cc1`: the “hERG current change (%, negative = inhibition) at 10uM” value is 0.0826%. `O=C(c1oc2ccccc2c1N1CCCCC1)N1CCCCC1`: the “hERG current change (%, negative = inhibition) at 10uM” value is given as -29.4%.

On to `CCn1c(/C=C/N(C(C)=O)c2ccccc2)[n+](CCCS(=O)(=O)[O-])c2cc(Cl)c(Cl)cc21`, for which the “hERG current change (%, negative = inhibition) at 10uM” value came out at 19.9%.

`COc1ccc(OC)c(NC(=O)COC(=O)CN2C(=O)NC3(CCCC3)C2=O)c1`: the “hERG current change (%, negative = inhibition) at 10uM” value is recorded as 7.58%. Regarding `CCCCN(C)C1CCN(C(=S)Nc2cccc(SC)c2)CC1`, the “hERG current change (%, negative = inhibition) at 10uM” value is -59.8%.

Turning to `O=C(Cc1ccccc1)NCC(=O)N1CCCCCC1`, the “hERG current change (%, negative = inhibition) at 10uM” value is recorded as 9.71%. On to `CC(NC(=O)c1cccc(S(=O)(=O)N(C)C)c1)c1nc2ccccc2[nH]1` (stereo not drawn), for which the “hERG current change (%, negative = inhibition) at 10uM” value is given as 0.75%.

Take `O=C1CSC(c2ccccn2)N1c1ccc(Cl)c(Cl)c1` (stereo not drawn): the “hERG current change (%, negative = inhibition) at 10uM” value is reported as -7.23%. Next, `CCN1CCc2nc3sc(C(=O)N4CCc5ccccc5C4)c(N)c3cc2C1`: -3.21%.

Take `O=C(CCc1c[nH]c2ccccc12)N1CCCC1`: the “hERG current change (%, negative = inhibition) at 10uM” value amounted to 23.5%. The result for `O=C(NN=C1CCCCCC1)c1ccc(Cl)s1` reads 0.331%; that for `COc1ccc(C(C#N)N2N=C(C)CC2(C)C)cc1` (stereo not drawn), 8.22%.

For the molecule `Oc1ccccc1-c1cc(-c2cccc(F)c2)n[nH]1`, the “hERG current change (%, negative = inhibition) at 10uM” value is -1.38%. Next, `Brc1ccc(CN2CCSCC2)cc1`: -65.1%; `O=C(CS(=O)(=O)Cc1ccccc1)Nc1ccc(Br)cc1F`: 13.4%.

Regarding `C/C(=N\Nc1ccc2nncn2n1)c1ccc(Cl)s1`, the “hERG current change (%, negative = inhibition) at 10uM” value is given as -1.54%. For the molecule `CC(CC(=O)NCc1ccc(F)cc1)c1ccccc1` (stereo not drawn), the “hERG current change (%, negative = inhibition) at 10uM” value is reported as 14.2%.

Consider `COc1ccc(-n2cnnc2SCC(=O)N2CCN(S(=O)(=O)c3ccccc3)CC2)cc1`, for which the “hERG current change (%, negative = inhibition) at 10uM” value was -30.8%. Next, `CC(=O)Nc1ccc(NC(=O)CSc2nc(=O)n3cccc(C)c3n2)cc1`: 8.14%; `CN(CC(=O)Nc1ccc(F)cc1)C(=O)COC(=O)Cc1c(F)cccc1Cl`: -11.5%. Consider `CC(Cl)C(=O)c1c[nH]c2ccccc12` (stereo not drawn), for which the “hERG current change (%, negative = inhibition) at 10uM” value was determined as 14.1%. Next, `COc1ccc(/C=C/C(=O)NCCc2ccc(S(N)(=O)=O)cc2)cc1`: 3.55%. Consider `COC(=O)[C@@H](NC(=O)c1ccc(OC2CCN(Cc3ccccn3)CC2)cc1)C(C)C`, for which the “hERG current change (%, negative = inhibition) at 10uM” value was determined as 6.56%.

For the molecule `COc1ccc2c(CC(=O)Nc3ccc(OC)c(NS(=O)(=O)c4ccc(F)cc4)c3)coc2c1`, the “hERG current change (%, negative = inhibition) at 10uM” value is listed as 15.9%.
